# Out of some 390,000 compounds screened, about 2,200 (0.56%) were called active. This list was built around the results that the source calls inconclusive (neither active nor inactive); the mix of calls is not that of the screen. Calls come from the whole dose curve; as a rule, active = well fitted inhibition curve with a large enough effect; inconclusive = small, poorly fitted or top-dose-only effect; inactive = no such curve, though single readings can be large or run the other way. Potencies beside an inconclusive call are fits to weak or partial responses and may not hold up.
# Molecular target: Chromobox protein homolog 1 (Homo sapiens) (UniProt P83916)
# UniProt P83916, sequence (P83916 whole entry, looked up): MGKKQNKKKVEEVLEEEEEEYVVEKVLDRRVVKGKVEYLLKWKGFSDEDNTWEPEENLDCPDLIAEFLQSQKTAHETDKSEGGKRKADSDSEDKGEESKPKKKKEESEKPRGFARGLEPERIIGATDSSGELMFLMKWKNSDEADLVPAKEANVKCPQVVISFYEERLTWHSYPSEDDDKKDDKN
# Experiment: HTS for Inhibitors of HP1-beta Chromodomain Interactions with Methylated Histone Tails; note: nearly all actives have a fitted effect of over 70% in size
# Details: AlphaScreen HP1-beta / biotin-H3K9me3 peptide binding; series mostly up to 114 µM; activity change, negative = inhibition: at the top concentration
# In short: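 Compound inhibition of the preformed complex between 50 nM HP1-beta and 50 nM biotinylated H3K9me3 peptide was read by AlphaScreen. Buffer was PBS pH 7.4 with 0.01% Tween-20. Incubations ran 30 min at room temperature, with 10 ug/mL donor/acceptor beads.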
# Potency is the fitted concentration of half-maximal effect; tags give direction and shape of the fitted curve.
Compound,Potency,"activity change, negative = inhibition"
CCOc1ccc(-c2nc(SCC(=O)Nc3ccc(C)c(C)c3)n3[nH]c(=O)cc3n2)cc1,"inconclusive: 79.4 µM [inhibitor, single point]",–
COc1ccc(OC)c(/C=N/N(C)c2ccccc2)c1,"inconclusive: 50.1 µM [inhibitor, partial curve, poor fit]",–
CCN(CC)C(=O)C1CCCN(C/C=C/c2ccccc2[N+](=O)[O-])C1 (stereo not drawn),"inconclusive: 50.1 µM [inhibitor, single point]",–
COc1cccc(C(=O)NC(=S)Nc2ccc(N3CCCC3)cc2)c1,"inconclusive: 8.91 µM [inhibitor, full curve, poor fit]",–
Cc1ccccc1C(=O)NCc1nc2cccnc2n1Cc1ccccc1,–,inactive: 27.9% [at 57 µM]
O=c1[nH]c2ccc(NCc3ccccc3OCc3ccc(Cl)cc3)cc2[nH]1,"inconclusive: 15.8 µM [inhibitor, partial curve, poor fit]",–
CC(C)C(=O)NC(=S)Nc1ccccn1,–,inactive: 24%
COc1ccc(/C=C2\SC(=S)N(C(Cc3ccccc3)C(=O)O)C2=O)cc1 (stereo not drawn),"inconclusive: 70.8 µM [inhibitor, partial curve, poor fit]",–
Cc1cc(C)n(S(=O)(=O)c2ccc(C)c(C)c2)n1,–,inactive: 37.2%
Clc1ccccc1CNc1nc2ccccc2n2cnnc12,–,inactive: 28.3%
COc1cc(CN2CCN(C(=O)CC(C)C)CC2)c([N+](=O)[O-])cc1OC,"inconclusive: 35.5 µM [inhibitor, partial curve]",–
COc1ccc(Nc2ccc(N3C(=O)CCCC3=O)cc2[N+](=O)[O-])cc1OC,"inconclusive: 39.8 µM [inhibitor, partial curve, poor fit]",–
Cc1cc(C)c(C)c(OCCCn2ccnc2)c1,"inconclusive: 89.1 µM [inhibitor, partial curve, poor fit]",–
Cc1sc(NC(=O)c2cccs2)c(C(N)=O)c1C,"inconclusive: 31.6 µM [inhibitor, full curve]",–
O=C1CC(N2CCN(c3ccc(O)cc3)CC2)C(=O)N1Cc1cccs1 (stereo not drawn),"inconclusive: 79.4 µM [inhibitor, single point]",–
Cc1cccc2cc(-c3ccccc3)c(-c3ccccc3)c[n+]12,"inconclusive: 70.8 µM [inhibitor, partial curve]",–
CN1CCN(c2oc(-c3ccc(COc4ccc(Cl)cc4)o3)nc2C#N)CC1,"inconclusive: 15.8 µM [inhibitor, full curve]",–
CCOc1ccc(S(=O)(=O)N2CCCCC2)cc1NC(=O)CCNC(=O)c1ccco1,–,inactive: 12.8%
Cc1nnc(SCC(=O)N/N=C/c2ccc(-c3ccc(C)c(Cl)c3)o2)s1,"inconclusive: 39.8 µM [inhibitor, partial curve, poor fit]",–
Cc1cccc(OC(=O)c2cc(-c3ccc4c(c3)OCCO4)on2)c1,–,inactive: 45%
CC1=C(C(=O)N2CCOCC2)C(c2cccc(C)c2)NC(=S)N1 (stereo not drawn),–,inactive: 36.6%
CCOc1cc(N2CCOCC2)c(OCC)cc1NC(=O)c1c(-c2ccccc2Cl)noc1C,"inconclusive: 44.7 µM [inhibitor, partial curve]",–
Cc1ccc2nc(SCC(=O)Nc3ccc(C(N)=O)cc3)[nH]c2c1,"inconclusive: 79.4 µM [inhibitor, single point]",–

Compound,Potency,"activity change, negative = inhibition"
CC(=O)CC1(O)C(=O)N(Cc2ccccc2)c2ccccc21 (stereo not drawn),"inconclusive: 39.8 µM [inhibitor, single point]",–
CCCCCOC(=O)C1[C@H]2C(=O)N(Cc3cccs3)C[C@]23C=C[C@H]1O3 (stereo partly drawn),–,inactive: 25.5%
Cc1sc2ccccc2c1CNC[C@H]1O[C@@H](n2cnc(C(N)=O)n2)[C@H](O)[C@@H]1O,"inconclusive: 35.5 µM [inhibitor, single point]",–
Cc1c(Cl)cccc1NC(=S)C(=C([O-])c1ccc(Cl)s1)[n+]1ccccc1,"inconclusive: 20 µM [inhibitor, full curve]",–
COc1ccc(Cl)cc1NC(=O)CCS(=O)(=O)c1ccc(Br)cc1,active: 12.6 µM,–
CCC(C)NCc1ccc(C(=O)OC)o1 (stereo not drawn),"inconclusive: 39.8 µM [inhibitor, single point]",–
COc1ccc(CN(Cc2ccccc2)C(=O)CN2CCN(C)CC2)cc1COc1ccc(NC(C)=O)cc1,–,inactive: -5.77%
CN(C)c1ccc(NC(=O)Cn2cc3c(n2)CCCC3)cc1,"inconclusive: 28.2 µM [inhibitor, partial curve, poor fit]",–
COc1ccccc1NS(=O)(=O)c1cc(NC(=O)c2sccc2C)ccc1N1CCCC1,"inconclusive: 10 µM [inhibitor, full curve, poor fit]",–
O=C(Nc1nnc(-c2ccncc2)s1)C1CCCO1 (stereo not drawn),–,inactive: -9.24%
C=CCn1c(SCC(=O)c2ccc(CNC(C)=O)o2)nc2scc(C3CC3)c2c1=O,"inconclusive: 28.2 µM [inhibitor, full curve]",–
CC1CCN(S(=O)(=O)c2ccc(NC(=O)CN3C(=O)NC(C)(c4ccccc4)C3=O)cc2)CC1 (stereo not drawn),"inconclusive: 70.8 µM [inhibitor, partial curve, poor fit]",–
CCN(CC)CCNc1nc(-c2cccs2)c(CC(=O)O)s1,"inconclusive: 56.2 µM [inhibitor, single point]",–
CN(C(=O)COC(=O)c1ccc(C#N)cc1)c1ccccc1,–,inactive: 46.4%
Cn1cccc1/C=C1\CC(C(C)(C)C)C/C(=C\c2cccn2C)C1=O (stereo not drawn),"inconclusive: 17.8 µM [inhibitor, full curve, poor fit]",–
Cc1occc1C(=O)NNC(=S)NC(=O)COc1ccc(Cl)cc1Cl,"inconclusive: 50.1 µM [inhibitor, partial curve]",–
Cc1cc(C(=O)CN2C(=O)NC(C)(c3cc(F)ccc3F)C2=O)c(C)n1C1CC1 (stereo not drawn),"inconclusive: 70.8 µM [inhibitor, single point]",–
Fc1ccc(-n2[nH]nnc2=S)cc1N1CCCC1,"inconclusive: 56.2 µM [inhibitor, partial curve]",–
CCOCCCNCc1c(Cl)cccc1Cl,"inconclusive: 56.2 µM [inhibitor, partial curve, poor fit]",–
Cc1ccc(C(=O)NCCc2cccc(Cl)c2)cc1[N+](=O)[O-],–,inactive: 17.5%
O=C1c2ccccc2C(=O)N1CCc1csc(NNc2nc(CCN3C(=O)c4ccccc4C3=O)cs2)n1,–,inactive: -12.3%
CCOc1ccc(C(C)=O)cc1N1C(=O)C2C3C=CC(O3)C2C1=O (stereo not drawn),active: 28.2 µM,–
Cc1cccc(CN(C)CCc2ccccn2)c1,"inconclusive: 44.7 µM [inhibitor, single point]",–

Compound,Potency,"activity change, negative = inhibition"
CN(C(=O)COC(=O)c1ccc2c(c1)NC(=O)CS2)C1CCS(=O)(=O)C1 (stereo not drawn),–,inactive: 15.9%
O=C1C=C(c2cccc3c2oc2ccccc23)C[C@@H](c2ccc(F)cc2)C1,–,inactive: 16.3%
COc1ccc(-c2noc3c2-c2nc(-c4ccccc4Cl)sc2CC3)cc1,"inconclusive: 50.1 µM [inhibitor, partial curve, poor fit]",–
S=C(NCCc1c[nH]c2ccccc12)NC1CCCCC1,"inconclusive: 25.1 µM [inhibitor, full curve]",–
COc1ccc(OC)c(NC(=O)NNC(=O)c2cc3occc3[nH]2)c1,–,inactive: 54%
COc1ccc(NC(=O)CCSCCC(=O)Nc2ccc(OC)cc2OC)c(OC)c1,–,inactive: 12%
COc1ccc(C(=O)Nc2cc3c(oc2=O)CCCC3=O)cc1,"inconclusive: 28.2 µM [inhibitor, single point]",–
CC(OCc1ccccc1)C(NC(=O)OC(C)(C)C)C(=O)NC1COC2CC(n3cc(F)c(=O)[nH]c3=O)OC12 (stereo not drawn),–,inactive: 30.6%
COc1ccc2[nH]c3c(N4CCC(O)(c5cccc(C(F)(F)F)c5)CC4)ncnc3c2c1,–,inactive: 7.87%
Cc1cccc(OCC(=O)Nc2ccc(S(=O)(=O)Nc3ccccn3)cc2)c1,–,inactive: 32%
COC(=O)c1ccc(COc2ccc(/C=C/C(=O)c3ccc(OC)c(CSCC(=O)O)c3)cc2OC)cc1,"inconclusive: 50.1 µM [inhibitor, partial curve, poor fit]",–
CC(OCC(O)CN(C)CCOc1ccccc1)c1ccc(Cl)cc1 (stereo not drawn),"inconclusive: 17.8 µM [inhibitor, full curve]",–
Cc1ccc2nc(/C(C#N)=C/c3ccc(O)c(O)c3)[nH]c2c1,"inconclusive: 8.91 µM [inhibitor, full curve]",–
CCCc1ccc(OC(C)C(=O)Nc2sc3c(c2C(=O)OC)CCCCC3)cc1 (stereo not drawn),"inconclusive: 11.2 µM [inhibitor, partial curve]",–
CC(C)(C)Nc1nc(-c2ccc3c(c2)CCN3C(=O)C2CC2)cs1,"inconclusive: 15.8 µM [inhibitor, full curve]",–
O=C1C=CC2(O[C@H](c3ccccc3)[C@@H](c3ccccc3)O2)[C@H](Sc2ccccc2O)C1,"inconclusive: 50.1 µM [inhibitor, partial curve, poor fit]",–
COc1ccc2c(c1)c1c(c(=O)n(-c3ccc(C)cc3)c(=O)n1CC(=O)N1CCCC1)n2C,–,inactive: 34.8%
CC1CCN(C2=C(NS(=O)(=O)c3ccc(Cl)cc3)C(=O)c3ccccc3C2=O)CC1,"inconclusive: 28.2 µM [inhibitor, full curve]",–
COc1ccc(N2CCN(C(=O)CN3CCN(c4nc(-c5ccc(F)cc5)cs4)CC3)CC2)cc1,"inconclusive: 22.4 µM [inhibitor, full curve]",–
CCOc1ccc(OCC)c(NC(=O)c2cc(CN3CCOCC3)on2)c1,"inconclusive: 89.1 µM [inhibitor, single point]",–
CC(=O)c1c(C)nn(CCC(=O)O)c1C,"inconclusive: 7.08 µM [inhibitor, full curve]",–
CCOc1ccc(N(CC)S(=O)(=O)N2CCCC(C(=O)Nc3ccc(OC)c(OC)c3)C2)cc1 (stereo not drawn),"inconclusive: 6.31 µM [inhibitor, single point]",–

# Reference: PubChem BioAssay AID540317 (National Center for Advancing Translational Sciences (NCATS), 2011)
